Data: PubChem BioAssay AID493208 (National Center for Advancing Translational Sciences (NCATS), 2011)
About 340 (0.77%) of roughly 44,000 compounds were called active. Inconclusive results (about 5%) are left out. Calls come from the whole dose curve; as a rule, active = well fitted inhibition curve with a large enough effect; inconclusive = small, poorly fitted or top-dose-only effect; inactive = flat fitted curve, though single readings scatter. The list shows a part of the results.

Test: Acumen qHTS Assay for Inhibitors of the mTORC1 Signaling Pathway in MEF (Tsc2-/-, p53-/-) Cells: Sytravon;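 note: plate controls were DMSO for no effect and rapamycin for full effect; nearly all actives have a fitted effect of over 50% in size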
Details: phospho-rpS6 immunofluorescence/PI, 24 h; series mostly up to 38.3 µM; activity change, negative = inhibition: at the top concentration
Outline: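 Readout is phospho-S6 Alexa 488 signal normalized to PI per well, reported as % active cells with thresholds set from rapamycin (7.5 nM) and DMSO controls. Cells: Tsc2-/-, p53-/- MEFs, 24 hrs compound at 37 C; PI cell number serves as viability.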

Activity change, negative = inhibition, inactive:
COc1ccc(-c2nc(CSCC(=O)NCc3ccccc3Cl)c(C)o2)cc1OC -11.8%
COc1cc(OC)c(NC(=O)CCc2c(C)nc3c4c(C)cc(C)nc4nn3c2C)cc1Cl -16.1%
CCCCCN1C(C(=O)c2ccccc2)=C(OC(=O)CC)c2ccccc2S1(=O)=O -17.6%
CC(NC(=O)c1ccc2c(c1)sc1nc(-c3ccc(F)cc3)cn12)C12CC3CC(CC(C3)C1)C2 (stereo not given) -16.7%
COc1cccc(/C=C/c2nc(C#N)c(N3CCN(C)CC3)o2)c1 -1.62%
COc1cc(NC(=O)C2CCN(S(=O)(=O)c3c(C)noc3/C=C/c3ccccc3F)CC2)cc(OC)c1OC -0.399%
Cc1ccc(CCNC(=O)c2ccc(Nc3nc4ccccc4n4nnnc34)cc2)cc1 1%
Cc1cccc(NC(=O)c2cc3c(=O)n(Cc4cccnc4)ccc3nc2C)c1 -16.4%
N#Cc1cc2c(=O)n3ccccc3nc2n(-c2nnc(SCc3ccccc3Cl)s2)c1=O -6.29%
CCN(CCCNC(=O)Cn1ncc2c([nH]c3ccc(C)cc32)c1=O)c1ccccc1 -2.45%
CCC(Sc1nc2n[nH]c(C)c2c(=N)n1-c1ccccc1Cl)C(=O)N(CC)CC (stereo not given) 5.77%
CC1Cn2c(C(=O)NCc3ccccc3Cl)cc3cccc(c32)S1 (stereo not given) -14.8%
CCOC(=O)Cn1c(=O)n(CC2CCCO2)c2nc(-c3cc(OC)ccc3OC)nc(C(N)=O)c21 (stereo not given) 2.46%
Cc1ccc(S(=O)(=O)NCCc2nnc3ccc(SCC(=O)Nc4ccc(F)cc4F)nn23)cc1 -5.8%
COc1ccc(CCNC(=O)CCc2c(C)nc3cc(-c4cccc(F)c4)nn3c2C)cc1OC 5.71%
CCCOc1ccc(C(=O)N(Cc2ccco2)Cc2ccco2)cc1 -2.33%
O=C(NCC(c1cccs1)S(=O)(=O)c1cccs1)c1c(F)cccc1F (stereo not given) -23.3%
COc1ccc(OC(=O)c2nc(SCc3ccccc3C)ncc2Cl)cc1 -12.5%
Cc1ccccc1OCC(=O)Nc1ccccc1OCc1cc(=O)n2ccccc2n1 -6.12%
Cc1ccc(CCNC(=O)CCCc2nnc3n(C)c(=O)c4sccc4n23)cc1 7.85%
COc1cccc(CSc2nc3n(n2)C(CC(C)C)C(C(=O)Nc2ccccc2C)=C(C)N3)c1 (stereo not given) -0.185%
COc1ccc(C(=O)Nc2cccc(C(=O)OCc3cc(=O)n4c5c(sc4n3)CCCC5)c2)cc1 3.93%
Cc1cc(C)c2c(CC(=O)Nc3cc(C(F)(F)F)ccc3Cl)coc2c1 2.99%
COc1ccccc1-n1c(=O)n(C)c2c(C(N)=O)nc(-c3cccc(OC)c3OC)nc21 3.68%
O=C(C1CCCN(S(=O)(=O)c2cccc3nsnc23)C1)N1CCN(c2cccc(Cl)c2)CC1 (stereo not given) -1.21%
Cc1ccc2nc(-c3ccccn3)c(Nc3ccccc3C)n2c1 -28.8%
CCCN1CCc2nc(N3CCN(C)CC3)ncc2C1 5.89%
CCN(CC)c1nn2c(=O)c(C(=O)NCCc3cccc(C)c3)cnc2s1 -10.5%
CCc1cccc(C)c1NS(=O)(=O)c1ccc2c(c1)CC(C)N2C(=O)C1CC1 (stereo not given) -11.6%
COc1ccc(-c2noc(CSc3nc4ccccc4[nH]3)n2)cc1OC 8.93%
CCN1C(=O)C(O)(c2c[nH]c3ccccc23)c2cc(Br)ccc21 (stereo not given) 7.47%
Fc1cccc(CSc2ccc(-c3cccs3)nn2)c1 -17.8%
Cc1cccc(Cn2c(=O)n(-c3ccccc3C)c(=O)c3c2c2cc(C)ccc2n3C)c1 -0.376%
CCC(=O)N1c2ccccc2CC1C(=O)NCc1cc(Br)ccc1OC (stereo not given) 4.03%
Cc1ccc2oc3c(c(=O)c2c1)C(c1ccc(O)cc1)N(c1nc(C)c(C)s1)C3=O (stereo not given) 11.3%
CCC(=O)Nc1nnc(S(=O)(=O)N2c3ccccc3CC2C)s1 (stereo not given) 5.38%
Cc1csc2nc(COC(=O)c3ccc(NC(=O)C(C)Oc4ccccc4)cc3)cc(=O)n12 (stereo not given) -6.25%
Cc1ccc(CNc2nc3ccccc3n3cnnc23)cc1 -6.43%
COc1ccc(NC(=O)c2cnc(N3CCCC3)nc2)cc1OC 0%
CCCC1=Nc2cc(C(=O)N3CCC(C(=O)OCC)CC3)ccc2Sc2ccccc21 0.0059%
Cc1cccc(NC(=O)C2CCCN2S(=O)(=O)c2ccc3c(c2)n(C)c(=O)c(=O)n3C)c1 (stereo not given) -10.4%
Cc1cc(C)c2oc(-c3cccc(NC(=O)c4ccc(-c5cccc([N+](=O)[O-])c5)o4)c3)nc2c1 -9.6%
O=C(CCSCc1cccc(Cl)c1)NCCc1ccc(Cl)cc1 5.95%
O=C(c1ccccc1)N1CCc2cc(CNS(=O)(=O)c3ccc(Cl)s3)ccc21 11.8%
COc1ccc(-n2c(SCC(=O)NCc3ccc(F)cc3)nc3c([nH]c4ccccc43)c2=O)cc1 -0.289%
Cc1oc(-c2ccc(Cl)cc2)nc1Cn1c(=O)cc(C)c2c(C)nn(-c3ccccc3)c21 0.398%
COc1ccccc1CNC(=O)CCCCn1c(=O)c2ccccc2n(Cc2ccccc2F)c1=O 0.459%
CC(=O)Nc1cccc(NC(=O)Cn2cnc3c(oc4ccccc43)c2=O)c1 0.0552%
Cn1c(=O)n(C)c2cc(N3CCOCC3)c(NS(=O)(=O)c3cccc(C#N)c3)cc21 -1.79%
Cc1ccc(-c2nc3c4c(-c5ccccc5)c(-c5ccccc5)oc4ncn3n2)cc1 9.33%
Cc1ccc(CCNC(=O)C2CCN(S(=O)(=O)c3ccc4c(ccn4C)c3)CC2)cc1 1.59%
CCOc1ccc(NC(=O)c2c(C)oc3nc(C)nc(N4CCOCC4)c23)cc1 -1.7%
Cc1ccc(CNC(=O)CSc2nc3ccccc3nc2Cc2ccc(C)cc2)cc1 0.656%
COc1ccc(NC(=O)CSc2nc(C)cc(C)c2C(=O)Nc2ccccc2OC)cc1 -5.27%
COc1ccc(S(=O)(=O)NCC(c2ccco2)S(=O)(=O)c2cccs2)cc1F (stereo not given) -4.91%
Cc1cccc(-c2nc(SCc3cc(=O)c4c(C)cc(C)cc4[nH]3)n[nH]2)c1 1.2%
COCCN(CCOC)S(=O)(=O)c1ccc(C(=O)Nc2sc3c(c2C(N)=O)CCCC3)cc1 -3.84%
O=C(Cn1ncc2c3ccccc3n(Cc3ccccc3)c2c1=O)NCCc1ccc(Cl)cc1 3.1%
COc1ccc(S(=O)(=O)N2CCC(c3nc4ccccc4s3)CC2)cc1OC -3.03%
COc1cccc(NC(=O)Cn2nc(N3CCN(c4ccccc4)CC3)ccc2=O)c1 4.12%
Cc1ccc(Cl)cc1-n1ncc2c(NCCc3ccccc3)ncnc21 6.36%
Cc1cccc(CSc2cn(CC(=O)N3CCOCC3)c3ccccc23)c1 -0.365%
CCC(=O)N1CCc2cc(S(=O)(=O)NC(Cc3ccccc3)C(=O)NCc3ccccc3)ccc21 (stereo not given) -15.9%
Cc1ccc(OCC(=O)Nc2ccc(OCc3cc(=O)n4ccsc4n3)cc2)cc1C 0.448%
CCCCNc1nc2c(S(=O)(=O)c3ccc(Br)cc3)nnn2c2ccsc12 -7.87%
Cc1ccc(NC(=O)Cn2c(=O)n(Cc3nc(-c4ccccc4)no3)c(=O)c3ccccc32)c(C)c1 0.289%
CCC(=O)N1CCc2cc(Br)cc(S(=O)(=O)N3CCCC(C(=O)Nc4ccc(C)c(F)c4)C3)c21 (stereo not given) 0.683%
Cc1ccc(Nc2c(-c3ccccn3)nc3ccc(Br)cn23)cc1 0.996%
Cc1nn(C(C)C(=O)NCc2ccc(OC(C)C)cc2)c(=O)c2c1sc1ccccc12 (stereo not given) -0.389%
Cc1ccc(C(=O)N(Cc2ccc(N(C)C)cc2)CC2CCCO2)cc1 (stereo not given) -4.25%
COc1ccccc1NC(=O)c1c(-c2ccc(C)cc2)nnc2ccccc12 7.55%
Cc1ccc2ccc3cc(C(=O)N4CCN(c5ccccc5F)CC4)nc3c2[nH]1 5.01%
CC(CCc1ccccc1)NC(=O)CSc1n[nH]c(-c2ccccc2)n1 (stereo not given) 4.66%
COc1ccc(N2CCN(C(=O)Nc3cn(CC(C)C)c(=O)c4ccccc34)CC2)cc1 -29%
O=C(Nc1cc(Cl)ccc1Cl)c1ccc2c(c1)N(Cc1cccc(Cl)c1)C(=O)c1ccccc1S2=O (stereo not given) 0.679%
Cc1c(Cl)cccc1NC(=O)c1cc(-c2ccc3c(c2)OCO3)on1 7.21%
COc1c(Cl)cc(C(=O)Nc2cc(-c3nc4ccccc4[nH]3)ccc2C)cc1Cl -5.69%
Cc1ccc2oc(C(=O)Nc3c(C(=O)Nc4cccc(Cl)c4)oc4ccccc34)cc(=O)c2c1 3.55%
Cc1ccccc1Cn1ccn(-c2ccc(F)c(F)c2)c(=O)c1=O 3.76%
CCOC(=O)CSc1nc2ccccc2c(=O)n1-c1ccc(C(=O)NCCOC)cc1 1.64%
O=C(Nc1ccccc1C(F)(F)F)N1CCOc2ccc(Cl)cc21 5.66%
Cc1ccc(N2C(=O)CS(=O)(=O)C23C(=O)Nc2ccccc23)cc1C (stereo not given) 0.387%
CCOC(=O)N1CCC(NC(=O)c2ccc3c(c2)N(Cc2ccccc2C)C(=O)c2ccccc2S3=O)CC1 (stereo not given) 0.28%
CCOc1ccccc1-c1noc(CSc2nnc(-c3ccccc3)n2-c2ccc(OC)cc2)n1 4.75%
COc1ccc(N2CCN(CCCNC(=O)c3c(C)nn(-c4ccc(F)cc4)c3-n3cccc3)CC2)cc1 -11.9%
COc1ccc(S(=O)(=O)N(CC(=O)NC(C)c2ccccc2)c2ccc(C)cc2)cc1OC (stereo not given) 12.5%
CCc1ccc(NC(=O)Cn2nnc(-c3ccccc3N)n2)cc1 -13%
COc1ccccc1N1CCN(C(=O)c2cc3c(=O)n(Cc4cccs4)ccc3nc2C)CC1 -6.8%
CCOC(=O)N1CCc2c(sc3c2c(=O)n(-c2ccc(CC)cc2)c(=O)n3Cc2ccc(F)cc2Cl)C1 -0.789%
CCOc1ccc2nc(N3CCCC(C(=O)NCCc4ccc(Cl)cc4)C3)sc2c1 (stereo not given) 0.0845%
Cc1ccc(-n2ncc3c(NCCCn4ccnc4)ncnc32)cc1C 12.3%
CCOC(=O)c1c(NC(=O)Cc2coc3ccc(CC)cc23)sc2c1CCC2 0.991%
Cc1cccc(N2CCN(c3ccc4cc(S(=O)(=O)N5CCC(C)CC5)ccc4n3)CC2)c1C -5.02%
CC(C)C(=O)Nc1nnc(S(=O)(=O)N2CCc3ccccc32)s1 10.3%
COc1ccccc1NC(=O)N1CCN(c2ccc3nnc(-c4ccc(F)cc4)n3n2)CC1 -4.23%
